The supplement of paper PMC8728848
Some of the results follow.

How the values were obtained:
Assay in all cases: glycan array binding signal (z-score within array); higher = stronger binding
Details in all cases: glycan notation: IUPAC condensed, linker removed
[1] = target: Neu5Ac(a2-6)Gal(b1-4)GlcNAc(b1-6)[Gal(b1-3)GlcNAc(b1-3)]Gal(b1-4)Glc
Outline: (§1)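 The binding signal is a Z-score computed within each array and averaged over linkers. Arrays of the same protein sequence at different concentrations or buffers were also averaged together. Data originate from 3228 arrays in the Consortium for Functional Glycomics database, kept only where the protein sequence was available.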

[2] = target: Neu5Ac(a2-6)Gal(b1-4)GlcNAc(b1-6)[Gal(b1-3)]GalNAc
Outline: as §1

[3] = target: Neu5Ac(a2-6)Gal(b1-4)GlcNAc6S
Outline: as §1

[4] = target: Neu5Ac(a2-6)GalNAc
Outline: as §1

[5] = target: Neu5Ac(a2-6)GalNAc(b1-4)GlcNAc
Outline: as §1

[6] = target: Neu5Ac(a2-6)GalNAc(b1-4)GlcNAc6S
Outline: as §1

[7] = target: Neu5Ac(a2-6)GlcNAc(b1-4)GlcNAc
Outline: as §1

[8] = target: Neu5Ac(a2-6)GlcNAc(b1-4)GlcNAc(b1-4)GlcNAc
Outline: as §1

[9] = target: Neu5Ac(a2-8)Neu5Ac
Outline: as §1

[10] = target: Neu5Ac(a2-8)Neu5Ac(a2-3)Gal(b1-3)GalNAc(b1-4)[Neu5Ac(a2-3)]Gal(b1-4)Glc
Outline: as §1

[11] = target: Neu5Ac(a2-8)Neu5Ac(a2-3)Gal(b1-3)GalNAc(b1-4)[Neu5Ac(a2-8)Neu5Ac(a2-3)]Gal(b1-4)Glc
Outline: as §1

[12] = target: Neu5Ac(a2-8)Neu5Ac(a2-3)Gal(b1-4)Glc
Outline: as §1

[13] = target: Neu5Ac(a2-8)Neu5Ac(a2-3)Gal(b1-4)GlcNAc
Outline: as §1

[14] = target: Neu5Ac(a2-8)Neu5Ac(a2-3)[Gal(b1-3)GalNAc(b1-4)]Gal(b1-4)Glc
Outline: as §1

[15] = target: Neu5Ac(a2-8)Neu5Ac(a2-3)[GalNAc(b1-4)]Gal(b1-4)Glc
Outline: as §1

[16] = target: Neu5Ac(a2-8)Neu5Ac(a2-8)Neu5Ac
Outline: as §1

[17] = target: Neu5Ac(a2-8)Neu5Ac(a2-8)Neu5Ac(a2-3)Gal(b1-4)Glc
Outline: as §1

[18] = target: Neu5Ac(a2-8)Neu5Ac(a2-8)Neu5Ac(a2-3)[Gal(b1-3)GalNAc(b1-4)]Gal(b1-4)Glc
Outline: as §1

[19] = target: Neu5Ac(a2-8)Neu5Ac(a2-8)Neu5Ac(a2-3)[GalNAc(b1-4)]Gal(b1-4)Glc
Outline: as §1

[20] = target: Neu5Ac(a2-8)Neu5Ac(a2-8)Neu5Ac(a2-8)Neu5Ac(a2-3)[GalNAc(b1-4)]Gal(b1-4)Glc
Outline: as §1

[21] = target: Neu5Ac(a2-8)Neu5Gc(a2-3)Gal(b1-4)GlcNAc
Outline: as §1

[22] = target: Neu5Ac(b2-6)Gal(b1-4)GlcNAc
Outline: as §1

[23] = target: Neu5Ac(b2-6)GalNAc
Outline: as §1

[24] = target: Neu5Ac9Ac(a2-3)Gal(b1-3)GlcNAc
Outline: as §1

[25] = target: Neu5Ac9Ac(a2-3)Gal(b1-4)GlcNAc
Outline: as §1

[26] = target: Neu5Ac9Ac(a2-6)Gal(b1-4)GlcNAc
Outline: as §1

[27] = target: Neu5Gc(a2-3)Gal(b1-3)GlcNAc
Outline: as §1

[28] = target: Neu5Gc(a2-3)Gal(b1-3)[Fuc(a1-4)]GlcNAc
Outline: as §1

[29] = target: Neu5Gc(a2-3)Gal(b1-4)Glc
Outline: as §1

[30] = target: Neu5Gc(a2-3)Gal(b1-4)GlcNAc
Outline: as §1

[31] = target: Neu5Gc(a2-3)Gal(b1-4)GlcNAc(b1-3)Gal(b1-4)GlcNAc(b1-2)Man(a1-3)[Neu5Gc(a2-3)Gal(b1-4)GlcNAc(b1-3)Gal(b1-4)GlcNAc(b1-2)Man(a1-6)]Man(b1-4)GlcNAc(b1-4)GlcNAc
Outline: as §1

[32] = target: Neu5Gc(a2-3)Gal(b1-4)[Fuc(a1-3)]GlcNAc
Outline: as §1

[33] = target: Neu5Gc(a2-6)Gal(b1-4)GlcNAc
Outline: as §1

[34] = target: Neu5Gc(a2-6)GalNAc
Outline: as §1

[35] = target: Neu5Gc(a2-8)Neu5Ac(a2-3)Gal(b1-4)GlcNAc
Outline: as §1

[36] = target: Neu5Gc(a2-8)Neu5Gc(a2-3)Gal(b1-4)GlcNAc
Outline: as §1

[37] = target: Neu5Gc(a2-8)Neu5Gc(a2-3)Gal(b1-4)GlcNAc(b1-3)Gal(b1-4)GlcNAc
Outline: as §1

[38] = target: Neu5Gc(a2-8)Neu5Gc(a2-6)Gal(b1-4)GlcNAc
Outline: as §1

B1: ACA (Amaranthus caudatus) (protein)
chain: MAGLPVIMCLKSNNNQKYLRYQSDNIQQYGLLQFSADKILDPLAQFEVEPSKTYDGLVHIKSRYTNKYLVRWSPNHYWITASANEPDENKSNWACTLFKPLYVEEGNMKKVRLLHVQLGHYTQNYTVGGSFVSYLFAESSQIDTGSKDVFHVIDWKSIFQFPKRYVTFKGNNGKYLGVITINQLPCLQFGYDNLNDPKVAHEMFVTSNGTICIKSTYMNKFWRLSTDDWILVDGNDPRETNEAAALFRSDVHDFNVISLLNMQKTWFIKRFTSGKPGFINCMNAATQNVDETAILEIIELGSNN
glycan array binding signal (z-score) [1]: -0.601 | glycan array binding signal (z-score) [2]: 0.235 | glycan array binding signal (z-score) [3]: 0.106 | glycan array binding signal (z-score) [4]: -0.273 | glycan array binding signal (z-score) [5]: -0.631 | glycan array binding signal (z-score) [6]: -0.207 | glycan array binding signal (z-score) [7]: -0.269 | glycan array binding signal (z-score) [8]: -0.43 | glycan array binding signal (z-score) [9]: -0.269 | glycan array binding signal (z-score) [10]: -0.178 | glycan array binding signal (z-score) [11]: -0.11 | glycan array binding signal (z-score) [12]: -0.424 | glycan array binding signal (z-score) [13]: -0.566 | glycan array binding signal (z-score) [14]: -0.248 | glycan array binding signal (z-score) [15]: 0.187 | glycan array binding signal (z-score) [16]: -0.308 | glycan array binding signal (z-score) [17]: -0.123 | glycan array binding signal (z-score) [18]: 0.073 | glycan array binding signal (z-score) [19]: 0.252 | glycan array binding signal (z-score) [20]: -0.441 | glycan array binding signal (z-score) [21]: -0.121 | glycan array binding signal (z-score) [22]: -0.293 | glycan array binding signal (z-score) [23]: -0.383 | glycan array binding signal (z-score) [24]: 0.099 | glycan array binding signal (z-score) [25]: 0.631 | glycan array binding signal (z-score) [26]: -0.487 | glycan array binding signal (z-score) [27]: -0.28 | glycan array binding signal (z-score) [28]: -0.191 | glycan array binding signal (z-score) [29]: 0.099 | glycan array binding signal (z-score) [30]: -0.2 | glycan array binding signal (z-score) [31]: 1.25 | glycan array binding signal (z-score) [32]: -0.167 | glycan array binding signal (z-score) [33]: -0.372 | glycan array binding signal (z-score) [34]: -0.314 | glycan array binding signal (z-score) [35]: -0.487 | glycan array binding signal (z-score) [36]: -0.362 | glycan array binding signal (z-score) [37]: -0.414 | glycan array binding signal (z-score) [38]: 0.076
